Biological target: LIP (lamprey immune protein) (Lethenteron camtschaticum, UniProt K7WEH5)
Conditions: PBS pH 7.4, 25 °C; 1:1 binding model; soluble SM as analyte

sphingomyelin [SM]
Kd: 10.8 µM

Reference: PMC6537362, “Crystal structure of a cytocidal protein from lamprey and its mechanism of action in the selective killing of cancer cells” (Cell Communication and Signaling : CCS, 2019)
